Results as given in PubChem BioAssay AID588342 (National Center for Advancing Translational Sciences (NCATS), 2011).
Among all 360,000 compounds or so, about 25,000 (6.9%) were called active. Inconclusive means that the source gave no clear call. Such entries were picked first, then a sample of the others. Calls come from the whole dose curve; as a rule, active = well fitted inhibition curve with a large enough effect; inconclusive = small, poorly fitted or top-dose-only effect; inactive = flat fitted curve, though single readings scatter. A potency beside an inconclusive call is a rough fit, not a confirmed value.
Note: nearly all actives have a fitted effect of over 55% in size.
Potency is the fitted concentration of half-maximal effect; tags give direction and shape of the fitted curve.

What follows are compounds tested against Luciferin 4-monooxygenase (Photinus pyralis) (UniProt P08659) (assay: qHTS profiling assay for firefly luciferase inhibitor/activator using purifed enzyme and Km concentrations of substrates (counterscreen for miR-21 project)). Details: purified FLuc, luminescence inhibition; series mostly up to 57.5 µM.
UniProt P08659, sequence (P08659 whole entry, looked up): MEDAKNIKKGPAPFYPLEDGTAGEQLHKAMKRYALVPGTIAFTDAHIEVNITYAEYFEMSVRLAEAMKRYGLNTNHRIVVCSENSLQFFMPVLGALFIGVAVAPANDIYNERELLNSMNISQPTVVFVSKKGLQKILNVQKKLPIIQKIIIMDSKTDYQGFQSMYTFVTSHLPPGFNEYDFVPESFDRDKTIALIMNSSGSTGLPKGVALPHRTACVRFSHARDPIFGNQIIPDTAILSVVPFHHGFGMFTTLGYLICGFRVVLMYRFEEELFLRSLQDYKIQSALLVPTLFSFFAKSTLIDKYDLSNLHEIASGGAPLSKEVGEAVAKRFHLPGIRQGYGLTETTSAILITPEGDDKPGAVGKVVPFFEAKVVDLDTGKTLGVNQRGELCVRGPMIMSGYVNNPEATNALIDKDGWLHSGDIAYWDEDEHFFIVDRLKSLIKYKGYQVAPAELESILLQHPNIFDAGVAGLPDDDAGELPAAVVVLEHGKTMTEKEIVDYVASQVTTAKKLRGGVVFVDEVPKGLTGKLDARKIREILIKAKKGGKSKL
Outline: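 Purified P. pyralis luciferase, 10 nM final, with Km-level 10 uM D-luciferin and 10 uM ATP in 50 mM Tris acetate pH 7.5, 10 mM Mg acetate, 0.01% Tween-20, 0.05% BSA; 6-point qHTS titration about 60 µM downward; luminescence read.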
For `O=[N+]([O-])c1ccccc1NCc1ccc(Cl)cc1`, the Potency was inconclusive: 26.9 µM [inhibitor, partial curve, poor fit]. For `CCc1cccc(C)c1NC(=O)Cn1cc2c(n1)CCCC2`, the Potency was “inactive”. For `COc1cc(CC(=O)N(c2ccccc2)c2nc(C)cs2)cc(OC)c1OC`, the Potency was “inactive”. In the case of `COc1ccc(NC(=O)c2cc3c(s2)CCC3)cc1S(=O)(=O)N1CCOCC1`, the Potency is reported as inconclusive: 37.9 µM [inhibitor, partial curve, poor fit]. For `CN(C)/C=C/C(=O)c1cnc(-c2ccccn2)s1`, the Potency was inconclusive: 37.9 µM [inhibitor, single point]. In the case of `CCN1C(C(=O)c2ccccc2)=C(OC(=O)c2ccc(OC)cc2)c2ccccc2S1(=O)=O`, the Potency is reported as “inactive”. With `OC(c1nc2ccccc2[nH]1)C(O)c1nc2ccccc2[nH]1` (stereo not given) the Potency was “inactive”. `CCOC(=O)c1c(C)nc(-c2ccccc2)nc1NC(=O)CC` was tested, and the Potency was inconclusive: 23.9 µM [inhibitor, partial curve, poor fit]. `O=C(O)c1ccc(Nc2ccc([N+](=O)[O-])c3nonc23)cc1` was tested, and the Potency was inconclusive: 9.53 µM [inhibitor, partial curve, poor fit]. In the case of `Cc1cc(C)nc(Nc2n[nH]c(-c3ccccc3Cl)n2)n1`, the Potency is reported as active: 6.75 µM. With `Cc1ccccc1C(=O)Nc1nc2nc(-c3ccccc3)cc(=O)n2[nH]1` the Potency was inconclusive: 13.5 µM [inhibitor, partial curve]. In the case of `Clc1cccc(-n2cc(-c3ccccc3)c3c(N4CCCCC4)ncnc32)c1`, the Potency is reported as “inactive”. `O=C(NNC(=O)C12CC3CC(CC(O)(C3)C1)C2)c1ccccc1O` was tested, and the Potency was inconclusive: 26.9 µM [inhibitor, single point]. For `O=c1cc(-c2ccc(Cl)cc2)oc(=O)[nH]1`, the Potency was active: 16.9 µM. With `CCOc1ccc(/C=C2\SC(=S)N(NC(=O)c3ccncc3)C2=O)cc1OC` the Potency was inconclusive: 30.1 µM [inhibitor, single point]. For `O=C(Nc1cccc(Cl)c1)OCc1cnc(Cl)s1`, the Potency was “inactive”. In the case of `Cc1cc(C)c(/C=C/c2onc(C)c2S(=O)(=O)N2CCC(C(=O)N(C)Cc3ccccc3)CC2)c(C)c1`, the Potency is reported as “inactive”. With `Cc1cc(C(=O)N/N=C/C=C/c2ccccc2)c(C)o1` the Potency was inconclusive: 30.1 µM [inhibitor, partial curve, poor fit]. In the case of `O=c1oc2ccccc2nc1/C=C(O)/C=C/c1ccc(F)cc1`, the Potency is reported as inconclusive: 15.1 µM [inhibitor, partial curve]. For `CCOc1ccc(-c2cc(C(=O)N3CCCC3)c3ccccc3n2)cc1`, the Potency was active: 0.478 µM. `CCC(C)(C)NC(=O)C(C(C)C)N(CC1CCCO1)C(=O)CNS(=O)(=O)c1ccccc1` (stereo not given) was tested, and the Potency was “inactive”. For `CCn1nc(C(=O)OCC(=O)c2ccc3c(c2)OCCO3)c2ccccc2c1=O`, the Potency was active: 2.39 µM. `COc1ccc(C(=O)NCC(=O)OCC(=O)NC(=O)c2ccc(C(C)(C)C)cc2)cc1OC` was tested, and the Potency was inconclusive: 26.9 µM [inhibitor, partial curve, poor fit]. With `Cc1ccc(C(=O)Nc2ccc(Cl)cc2C(F)(F)F)c(Cl)c1` the Potency was active: 10.7 µM. With `COc1ccc(CCNS(=O)(=O)CCNC(=O)c2ccc3c(c2)OCO3)cc1OC` the Potency was “inactive”. `C/C(=C\C(=O)c1ccc(C)cc1)Nc1cccc(O)c1` was tested, and the Potency was active: 0.849 µM. `Cc1cc(C(F)(F)F)n2[nH]c(=O)c(N=Nc3ccccc3)c2n1` was tested, and the Potency was inconclusive: 12 µM [inhibitor, partial curve]. In the case of `COc1ccccc1C1=NOC(COC(=O)c2ccc3ccccc3n2)C1` (stereo not given), the Potency is reported as inconclusive: 37.9 µM [inhibitor, partial curve, poor fit]. In the case of `O=C(CCSc1nnc(-c2ccccc2)o1)N1CCOCC1`, the Potency is reported as inconclusive: 37.9 µM [inhibitor, partial curve, poor fit]. In the case of `Cc1ccc(C)c(OCc2cc(C(=O)NC3CCOC(C)(C)C3)no2)c1` (stereo not given), the Potency is reported as inconclusive: 16.9 µM [inhibitor, partial curve]. With `O=C(/C=C/c1ccc2c(c1)OCO2)Nc1nc2ccc(F)cc2s1` the Potency was inconclusive: 10.7 µM [inhibitor, partial curve]. With `c1ccc(Cc2nn3c(C4COc5ccccc5O4)nnc3s2)cc1` (stereo not given) the Potency was inconclusive: 21.3 µM [inhibitor, single point]. With `COc1ccc(-c2ccc(/C=N/N3C(=O)C4C5C=CC(C6CC56)C4C3=O)o2)c([N+](=O)[O-])c1` (stereo not given) the Potency was inconclusive: 37.9 µM [inhibitor, partial curve, poor fit]. For `Oc1ccc(/C=N/N=C/c2ccc(O)c(O)c2)cc1O`, the Potency was active: 15.1 µM. `O=C(Nc1ccc(S(=O)(=O)Nc2ncccn2)cc1)c1ccccc1NS(=O)(=O)c1ccc(F)cc1` was tested, and the Potency was inconclusive: 23.9 µM [inhibitor, single point]. With `COc1ccc(OC)c(N/C(C)=C/C(=O)c2ccc(Br)cc2)c1` the Potency was inconclusive: 23.9 µM [inhibitor, partial curve]. In the case of `C/C(CC(=O)NCc1ccc(Cl)cc1)=N\NC(=O)COc1ccc(C)cc1Br`, the Potency is reported as inconclusive: 30.1 µM [inhibitor, partial curve, poor fit]. With `CCC(=O)Nc1cnc(NC(=O)c2cccc(F)c2)cc1C` the Potency was active: 9.53 µM. In the case of `CC(=O)NC12CC3CC(C1)CC(C(=O)Nc1nc4c(C)cccc4s1)(C3)C2`, the Potency is reported as inconclusive: 37.9 µM [inhibitor, partial curve, poor fit]. With `COc1ccc(C(=O)N/N=C/c2cc(Br)ccc2O)cc1OC` the Potency was “inactive”. With `c1csc(-c2nnc(NC3CCCCC3)c3ccccc23)c1` the Potency was active: 12 µM. With `CCn1cc(SCC(=O)N2CCc3ccccc32)c2ccccc21` the Potency was inconclusive: 16.9 µM [inhibitor, partial curve]. In the case of `Cc1cc(-c2ccccc2)nc(N/N=C/c2ccccc2)n1`, the Potency is reported as active: 6.75 µM. With `Cc1ccccc1NC(=O)CN1C(=O)N/C(=C\c2cccn2-c2cccc(C(=O)O)c2)C1=O` the Potency was inconclusive: 0.0169 µM [inhibitor, full curve]. `O=C(Cc1c(C(=O)O)[nH]c2ccccc12)Nc1cccc(C(F)(F)F)c1` was tested, and the Potency was inconclusive: 10.7 µM [inhibitor, partial curve].
